# The full ranking holds about 33,000 sequences; the median of “E-score (-0.5 to 0.5)” is about -0.016, and the highest 2% start at about 0.32. The list shows a part of the results.
# Target: T1, Stp1 (UniProt B3LFK1)
# T1 sequence: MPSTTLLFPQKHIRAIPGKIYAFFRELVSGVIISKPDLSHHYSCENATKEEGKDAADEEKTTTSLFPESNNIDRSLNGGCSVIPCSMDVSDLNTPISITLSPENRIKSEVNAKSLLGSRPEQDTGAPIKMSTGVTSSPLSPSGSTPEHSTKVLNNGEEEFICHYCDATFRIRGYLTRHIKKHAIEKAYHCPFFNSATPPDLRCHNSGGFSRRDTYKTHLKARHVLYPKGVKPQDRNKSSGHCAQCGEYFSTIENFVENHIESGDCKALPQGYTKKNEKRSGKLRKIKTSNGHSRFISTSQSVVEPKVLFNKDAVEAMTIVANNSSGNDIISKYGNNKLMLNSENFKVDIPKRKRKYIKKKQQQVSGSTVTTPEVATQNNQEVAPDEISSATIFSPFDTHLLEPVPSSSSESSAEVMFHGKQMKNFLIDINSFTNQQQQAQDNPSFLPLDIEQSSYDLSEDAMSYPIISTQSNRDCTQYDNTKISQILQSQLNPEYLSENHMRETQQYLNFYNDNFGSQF
# Assay: PBM E-score (8-mer binding enrichment) (E-score (-0.5 to 0.5)); higher = stronger / more preferred TF binding; most listed sequences are background and not binding sites
# Settings: protein concentration: 200 nM; construct: GST-full length
# Protocol: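 Universal 'all 10-mer' protein binding microarrays (Agilent AMADID 015681) probed with GST-tagged S. cerevisiae TFs (full-length or DBD) made by in vitro transcription/translation (PURExpress), about 100-200 nM. Bound TF was detected with fluorescent anti-GST. Each ungapped 8-mer (which stands for itself and its reverse complement) is scored by the PBM enrichment score (E-score), a modified Wilcoxon-Mann-Whitney statistic from -0.5 to +0.5, computed with the Universal PBM Analysis Suite. Scale: above 0.35 generally sequence-specific binding.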
row,Sequence,PBM E-score
1,CTAAAGTA,-0.151
2,GGTGTACA,-0.0392
3,AACGCCTC,0.225
4,CCAGTAAC,-0.183
5,CCAATTTA,0.214
6,AGAATGGA,1e-05
7,CTTCCCCA,-0.202
8,ATTGCCGA,0.177
9,CTATATAG,-0.0268
10,AGCCTGCA,-0.0863
11,TTCATGAA,0.095
12,GCGTGTGA,0.0615
13,CTGTGTGA,0.154
14,CATTGCGG,0.158
15,AACGACCT,-0.072
16,CAGGGGCG,-0.115
17,ATCGCAAG,-0.0187
18,CGCTTATC,-0.00336
19,ACAACCTC,0.0654
20,ACCCGTAG,-0.36
21,CATGGGGG,-0.316
22,TGCCGGCA,0.195
23,AAAGCAGG,-0.101
24,GGTTGGTA,0.138
25,GCATCCCA,-0.163

row,Sequence,PBM E-score
1,GGAGTAAC,-0.0602
2,AGCGATCA,-0.165
3,CGCTACCG,-0.0922
4,GGTCTCTA,-0.283
5,AGCATAGC,-0.286
6,CAGCGCGA,-0.0618
7,TACTGAGA,-0.0462
8,ACTTCTTA,0.0494
9,AAAAATCG,-0.0478
10,AAGCTCCT,-0.271
11,AAACGGGA,0.00151
12,AAGTTCCG,0.125
13,GTGCAGGA,-0.209
14,CTATGATA,0.152
15,CAGCTCTA,-0.153
16,GCCCCGAA,-0.0149
17,TCGGTAGA,-0.0266
18,CAGTCTAA,0.122
19,TGACCCCA,-0.298
20,AGTTAACG,0.0353
21,ACGGGCTG,-0.156
22,GGCTAGCC,-0.197
23,GGCCGTTA,0.1
24,GGGGGGCA,-0.344
25,GTCGTTTA,0.0978

row,Sequence,PBM E-score
1,ACCCCAGT,-0.229
2,AGATGATG,-0.0725
3,CAGGAAGG,-0.0876
4,CTTCCATA,-0.0335
5,CAGGTAGA,-0.174
6,GCTCACTA,-0.18
7,AATTACCT,-0.0199
8,CTTAGCTC,-0.116
9,GGGCATTA,0.139
10,CCTTCCAC,-0.0469
11,ACAGTGAG,-0.189
12,ACCGGCAC,0.301
13,CTTAGACC,-0.0741
14,AGAGGGAG,-0.306
15,AAAATCTT,0.02
16,AAGGTACC,-0.145
17,GTTACAAA,0.134
18,CCAGCGCA,-0.117
19,AGGGGCTC,-0.235
20,GCCCAGTA,-0.14
21,TACCCTCA,-0.124
22,GACGAACC,-0.173
23,ATGGTAGC,-0.0618
24,CCTCTTCC,-0.17
25,ACTTGTAC,0.0123

row,Sequence,PBM E-score
1,AGGAGGCG,0.201
2,GAGGCACA,0.332
3,TAAGCGTA,0.018
4,CGCGGTTC,0.0607
5,CAGCTGAC,0.0168
6,CACACTCG,0.0209
7,ACGGCAGT,0.403
8,CGTTGTGC,0.0391
9,AAGGCGAC,0.224
10,CTATCGGC,-0.0112
11,ATTCCTTC,0.0787
12,GAGATATA,0.105
13,ATCCACAA,-0.0164
14,GCAGGAGC,-0.0737
15,CACGTCGC,-0.125
16,ACACCATG,-0.135
17,CCAAACAA,0.0612
18,GGAAACAA,-0.169
19,ACGAATAC,-0.024
20,AGTTGTGA,0.141
21,AATACGGC,0.453
22,ACACTAAT,0.138
23,CGGCTGTC,0.129
24,CCCCTGTA,-0.197
25,AACAATCC,0.108

row,Sequence,PBM E-score
1,CAATCAAA,0.06
2,AGACTCTA,-0.159
3,CCCGGCTC,-0.238
4,CCTTCGAA,0.0509
5,CGAGCGTC,-0.0961
6,TAGATTAA,0.236
7,AAGCCTCG,0.0868
8,GATCAGAC,-0.113
9,ATTATTGC,0.185
10,CCGCCCGC,0.075
11,CCTTGTAA,0.167
12,ACAATCAG,0.147
13,GGGTCTTA,-0.0616
14,GTACGTTA,0.0174
15,ACCTCCGT,-0.0344
16,CACTTAAC,-0.0179
17,ATTATAAT,0.253
18,CTTGTGGC,-0.0933
19,GTTTCGTA,0.137
20,GGGGCCCC,-0.2
21,CTTCCGAC,-0.123
22,CTTATACC,-0.0352
23,AGTCTAAA,-0.143
24,CCAGAAAC,0.0755
25,ACCAACTC,-0.122

row,Sequence,PBM E-score
1,ACGCCAGT,-0.0382
2,GAAGCAAA,-0.0659
3,AAGCGGCA,0.455
4,AAGTTGCA,0.0435
5,ATCAACTC,-0.101
6,CTCGAGAC,0.062
7,GTTATATA,0.0217
8,CCGCGCGA,0.314
9,TGTACGAA,0.0629
10,CAGTAGGC,0.124
11,AACCCAAG,-0.0891
12,CGGGGCGA,0.149
13,AGTACGAT,0.136
14,CTGATCTC,-0.0952
15,CAAATCTC,0.0287
16,GCACAACC,-0.151
17,ATTATGGA,-0.00328
18,AAATGGGT,0.00849
19,CAGTTGCC,0.119
20,GGGGTTTA,-0.168
21,AAGGGGCA,0.00645
22,ACCCTACT,-0.184
23,CCCTGTGC,-0.00142
24,GATGTTGA,-0.0867
25,CTTCCTTA,-0.194

row,Sequence,PBM E-score
1,CAAGCTGA,0.007
2,ATCGCTGC,-0.00912
3,ATGCAATG,0.074
4,AGACAGGA,0.0849
5,CCGGGGGA,-0.263
6,GAGGCATC,0.296
7,TGCAGCAA,0.0652
8,GAAACGCC,0.289
9,AGTTTCGG,-0.0129
10,GCCCGGAA,-0.0934
11,CAGAATAG,-0.0665
12,ACGTCCTG,-0.22
13,CTGGGATC,-0.267
14,CCAAGTCC,-0.248
15,TCATGTCA,-0.0676
16,AAGGCGCC,0.424
17,TAAAGCCA,0.141
18,GCGTTGGA,-0.115
19,ATGAGCCC,-0.254
20,CCAGCCTC,-0.308
21,CATTATAC,0.0795
22,CTCATTCA,0.00256

# Reference: the supplement of paper PMC3334620
